Assay results: PubChem BioAssay AID2101 (National Center for Advancing Translational Sciences (NCATS), 2009)
Out of some 330,000 compounds screened, about 300 (0.091%) were called active. Inconclusive results, whose numbers are uncertain, are shown with a selection of clear calls. Calls come from the whole dose curve; as a rule, active = well fitted inhibition curve with a large enough effect; inconclusive = small, poorly fitted or top-dose-only effect, or effect the other way, or another doubt; inactive = no such curve, though single readings can be large or run the other way. No potency is given beside an inconclusive call; the fits are too rough.

Molecular target: Lysosomal acid glucosylceramidase (Homo sapiens) (UniProt P04062)
Assay: qHTS Assay for Inhibitors and Activators of N370S glucocerebrosidase as a Potential Chaperone Treatment of Gaucher Disease;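 for activity change, negative = inhibition: 0% = full enzyme activity and -100% = no enzyme basal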
Settings: N370S GC spleen homogenate, 4MU-glucoside fluorescence; activity change, negative = inhibition: at 59.4 µM (top of the series) unless noted
Potency is the fitted concentration of half-maximal effect.

SMILES	Potency	activity change, negative = inhibition
CCOC(=O)/N=C(/NC(=O)Nc1ccc(C(=O)OCC)cc1)OC	inconclusive [inhibitor, single point]	–
COc1ccc(N(C(=O)c2snc(C(N)=O)c2N)C(C(=O)NC2CCCC2)c2ccc(F)cc2)c(OC)c1 (centres undefined)	inconclusive [activator, partial curve]	–
O=C(NC1CCCCC1)c1cccc(N2C(=O)CCC2=O)c1	inconclusive [inhibitor, full curve, poor fit]	–
O=C(CC(Nc1ccc(F)cc1)C(=O)O)c1ccccc1 (centres undefined)	–	inactive: 5.07%
Cc1c(C(=O)O)sc2nc(-c3cccs3)cc(C(F)(F)F)c12	inconclusive [activator, single point]	–
O=C(Nc1ccccc1)c1cn2ccccc2n1	inconclusive [activator, partial curve]	–
C=CCSc1n[nH]c(-c2ccccc2)n1	–	inconclusive: 33.9% [activator]
CCOC(=O)N1CCN(C(=O)c2c[nH]c3ccc(S(=O)(=O)N(C)c4ccccc4C)cc3c2=O)CC1	inconclusive [activator, partial curve]	–
COc1ccc(NC(=O)c2ccc3snnc3c2)cc1	–	inactive: -1.95%
O=C(CSc1cccc[n+]1[O-])c1cc2ccccc2o1	–	inactive: -4.04%
COc1ccc(CC2C(=O)OC(C)(C)OC2=O)cc1	inconclusive [inhibitor, single point]	–
Cc1cccc(OCC(=O)Nc2ccccc2N2CCCCC2)c1C	inconclusive [activator, partial curve]	–
CCOc1ccc(N2CC(C(=O)Nc3ccc(S(=O)(=O)N4CCCC4)cc3)CC2=O)cc1 (centres undefined)	–	inactive: -9.8%
O=C(N/N=C/C1=C(N2CCOCC2)C(=C\c2ccccc2)/CC1)Nc1ccccc1	–	inactive: 15.8%
CCOC(=O)CCCNC(=O)N1CCc2nc(-c3ccccc3)c3c(c2C1)CO[C@@H](C)C3	–	inactive: -8.52% [at 12.8 µM]
N#Cc1sc2nc(C3CC3)cc(-c3ccccc3)c2c1N	inconclusive [activator, partial curve]	–
N#CC1(C#N)C(c2ccccc2)OC23CCCCC2C1(C#N)C(=N)O3 (centres undefined)	inconclusive [activator, single point]	–
Oc1ccc(-c2nccc(-c3cccs3)n2)cc1	–	inactive: -9.95%
CC(C)CN(C)C(=O)CCc1nnc(Cc2cccc(C(F)(F)F)c2)o1	–	inactive: -9.48%
Cn1c2ccccc2c2cnn(CC(=O)O)c(=O)c21	–	inactive: -23.3%
NC(N)=NC1=NC(=O)/C(=C/c2ccccc2-n2cccn2)S1	inconclusive [inhibitor, single point]	–
c1cc2c(cc1C1CCCCC1)c1c3n2CCN=C3CCC1	inconclusive [inhibitor, partial curve]	–

SMILES	Potency	activity change, negative = inhibition
Cc1cc(C)n(CC(=O)N/N=C/c2cccc([N+](=O)[O-])c2)n1	–	inconclusive: 32.8% [activator]
CCOC(=O)C1CCN(S(=O)(=O)c2c(Cl)ccc3nonc23)CC1	inconclusive [inhibitor, partial curve]	–
CCCCC1CCC(C(=O)NCC(c2ccco2)N2CCOCC2)CC1 (centres undefined)	inconclusive [inhibitor, single point]	–
Cc1ccc(C(=O)N2N=C(c3ccccc3)CC2(O)C(F)(F)F)o1 (centres undefined)	inconclusive [inhibitor, single point]	–
O=C(CSCc1nc2ccccc2[nH]1)Nc1ccc2ccccc2c1	inconclusive [inhibitor, full curve, poor fit]	–
O=C(NCCN1CCOCC1)c1cc2c(=O)n3ccccc3nc2n1Cc1ccccc1	inconclusive [activator, partial curve]	–
CCn1c(SCC(=O)N2CCN(c3cccc(Cl)c3)CC2)nc2ccccc2c1=O	inconclusive [activator, partial curve]	–
CCC(=O)Nc1nnc(/C=C/c2ccccc2)s1	inconclusive [activator, partial curve]	–
COc1ccc(-c2nnc3n2N=C(c2c(OC)cccc2OC)CS3)cc1OC	–	inactive: -9.04%
Cc1ccc(OCC(=O)Nc2ccc(S(=O)(=O)N(C)C3CCN(C)CC3)cc2)c(C)c1	inconclusive [inhibitor, single point]	–
O=C(/C=C/Nc1ccc(F)cc1F)c1ccco1	–	inactive: 3.26%
CC[C@@]12C(=O)N(c3ccccc3)C(=O)N1[C@H](c1cccc(C)c1)[C@@H]1C(=O)N(Cc3ccccc3)C(=O)[C@@H]12	inconclusive [activator, single point]	–
Cn1ncc2c(Nc3cccc(Cl)c3)nc(Nc3cccc(Cl)c3)nc21	inconclusive [inhibitor, partial curve]	–
Cc1cc(=O)oc2c3c(cc(OCC(=O)NCCC(=O)N[C@@H](C)C(=O)O)c12)OC(C)(C)CC3	inconclusive [activator, single point]	–
O=C(N/N=C/c1cccnc1)c1ccc(NC(=O)c2ccccc2Cl)cc1	inconclusive [inhibitor, partial curve]	–
COc1cc(NC(=O)CSc2ncnc3c2cnn3Cc2ccccc2)cc(OC)c1	inconclusive [activator, partial curve]	–
COc1ccc(N2CCN(C(=O)c3ccccc3NS(=O)(=O)c3ccc(C)cc3)CC2)cc1	–	inactive: -4.71%
Cc1ccc2[nH]c(O)c(N=NC(=O)C3CC3c3ccccc3)c2c1Br (centres undefined)	inconclusive [activator, partial curve]	–
CCCNC(=O)CC(NS(=O)(=O)c1ccc(NC(C)=O)cc1)C(C)C (centres undefined)	–	inactive: -0.443%
COCCNc1nc(-c2ccccc2Cl)nc2ccccc12	active: 7.94 µM	–
CC(Oc1cc2oc(=O)c3c(c2cc1Cl)CCCC3)C(=O)NCCN1CCOCC1 (centres undefined)	inconclusive [inhibitor, partial curve]	–
COc1cccc(C2C(C(=O)c3sc(C)nc3C)=C(O)C(=O)N2CCN2CCOCC2)c1 (centres undefined)	inconclusive [inhibitor, single point]	–
